# Measurements: publication PMC4336329 (PLoS ONE, 2015)
# About 14,000 (4.5%) of roughly 310,000 compounds showed an effect of 50% or more. Effects have a minus sign here. The list shows a part of the results.
# Biological target: human ether-à-go-go-related gene (hERG) potassium channel (human, UniProt Q12809)
# Assay: primary screen, population patch clamp on CHO cells stably expressing hERG
# 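Also: peak tail current of the secondary pulse compared with the same well before compound.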
# Chain of human ether-à-go-go-related gene (hERG) potassium channel (Q12809 whole entry, looked up): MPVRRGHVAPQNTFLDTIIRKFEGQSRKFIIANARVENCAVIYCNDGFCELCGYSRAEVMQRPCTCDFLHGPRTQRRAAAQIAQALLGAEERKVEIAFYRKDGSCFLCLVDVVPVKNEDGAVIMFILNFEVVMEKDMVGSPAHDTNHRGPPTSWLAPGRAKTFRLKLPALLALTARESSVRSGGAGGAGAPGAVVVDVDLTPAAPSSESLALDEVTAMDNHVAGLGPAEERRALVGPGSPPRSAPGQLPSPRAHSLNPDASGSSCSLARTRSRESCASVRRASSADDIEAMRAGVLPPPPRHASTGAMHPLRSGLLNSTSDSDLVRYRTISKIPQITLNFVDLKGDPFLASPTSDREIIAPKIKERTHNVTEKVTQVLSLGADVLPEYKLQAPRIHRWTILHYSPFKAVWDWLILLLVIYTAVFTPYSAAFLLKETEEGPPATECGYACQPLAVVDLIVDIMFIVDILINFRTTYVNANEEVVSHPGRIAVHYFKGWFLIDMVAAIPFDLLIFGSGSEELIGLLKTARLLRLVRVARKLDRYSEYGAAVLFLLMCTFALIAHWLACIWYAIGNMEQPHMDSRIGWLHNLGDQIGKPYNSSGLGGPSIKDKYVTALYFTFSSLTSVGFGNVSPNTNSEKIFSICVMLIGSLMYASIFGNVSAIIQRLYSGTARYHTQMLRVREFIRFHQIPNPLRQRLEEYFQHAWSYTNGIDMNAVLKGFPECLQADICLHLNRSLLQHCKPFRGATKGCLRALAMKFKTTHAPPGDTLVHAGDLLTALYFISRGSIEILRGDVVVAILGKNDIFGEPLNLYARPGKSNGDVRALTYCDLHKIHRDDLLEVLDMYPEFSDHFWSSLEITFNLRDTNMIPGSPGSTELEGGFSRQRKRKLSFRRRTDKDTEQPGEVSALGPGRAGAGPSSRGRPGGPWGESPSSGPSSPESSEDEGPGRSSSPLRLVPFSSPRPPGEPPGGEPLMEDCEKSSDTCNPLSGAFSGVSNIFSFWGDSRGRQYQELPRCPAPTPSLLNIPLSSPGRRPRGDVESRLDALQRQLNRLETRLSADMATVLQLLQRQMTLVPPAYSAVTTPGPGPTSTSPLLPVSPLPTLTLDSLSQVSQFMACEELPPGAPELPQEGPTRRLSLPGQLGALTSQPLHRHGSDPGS
row,Structure (SMILES),"hERG current change (%, negative = inhibition) at 10uM [%]"
1,CC1(C)Cc2c(c(N3CCOCC3)nc3sc4c(NCc5ccco5)nnnc4c23)CS1,8.33
2,OCCNc1ncnc2c1cnn2Cc1ccccc1,15.9
3,CCCc1cc(=O)oc2c(C)c3occ(C)c3cc12,-2.29
4,CC(=O)N1CCN(C(=O)/C(C#N)=C/c2ccc3c(c2)OCO3)CC1,23.8
5,CCCCOCCCNC(=O)N[C@@H](CCSC)C(=O)OC,16.3
6,Cc1cc(OC(=O)c2c(F)cc(F)cc2F)nc(C)n1,11.2
7,COc1cccc(NC(=O)Nc2cc(C(=O)O)ccc2C)c1,15.3
8,CC1(C)CC(=O)C=C(NNC(=O)OC(C)(C)C)C1,1.99
9,COCCN1C(=O)C(=O)/C(=C(/O)c2ccc(S(=O)(=O)N3CCOCC3)cc2)C1c1cccc(Cl)c1 (stereo not drawn),1.38
10,COc1ccc(NC(=O)CN(C)C(=O)C2CC(=O)N(c3ccc4c(c3)OCCO4)C2)cc1 (stereo not drawn),1.96
11,COc1ccc(CCNC(=O)c2ccc3c(c2)N(Cc2ccc(F)cc2)CCS3)c(OC)c1,3.96
12,Cc1cc(-c2nnc(SCC(=O)Nc3ccc(C(F)(F)F)cc3)n2C)no1,17.8
13,Cc1ccc(S(=O)(=O)N(CCC(=O)NCc2ccccc2F)c2ccccc2)cc1,-33
14,COc1ccc2c(c1)OC[C@H]1[C@H]2N2C(=O)CN(Cc3ccc(Cl)cc3)C(=O)[C@@]2(C)[C@H]1c1ccccc1,6.5
15,CC1(C)CC(NC(=O)c2ccccn2)CC(C)(C)N1O.Cl,11.8
16,COC(=O)c1cc(OC)c(OC)cc1NC(=O)CCNC(=O)c1ccco1,15.3
17,Cc1c(Cl)cccc1NC(=O)CNc1cccc(S(=O)(=O)N(C)C)c1,-10.1
18,CCC(C)Sc1cccc(-c2nc3cc(C)ccn3c2NCc2ccccc2)c1.O=C(O)C(F)(F)F (stereo not drawn),4.02
19,Cc1ccc(NCc2ccccc2O)cc1,6.73
20,CCOC(=O)C1CCN(c2c(Nc3cc(C)cc(C)c3)c(=O)c2=O)CC1,-29.1
21,COc1ccccc1Nc1nnc(SCC2CCCCO2)s1 (stereo not drawn),-30.8
22,O=C(Cn1cc([N+](=O)[O-])cn1)N1CCN(c2ccccc2)CC1,7.25
23,O=C(CN(Cc1ccccc1)C(=O)c1csnn1)NCc1ccccc1,8.5

row,Structure (SMILES),"hERG current change (%, negative = inhibition) at 10uM [%]"
1,O=c1cc(N2CCCCC2)c2ccccc2o1,-23.8
2,Cc1c(N=Cc2c(O)n(CCc3ccccc3)c(=O)[nH]c2=O)c(=O)n(-c2ccccc2)n1C,-39.3
3,CCOC(=O)c1cnc2c(C)cccc2c1Nc1ccc(N2CCOCC2)cc1,8.24
4,CC(=O)c1cccc(N(C(=O)c2ccco2)C(C(=O)NC2CCCC2)c2cccs2)c1 (stereo not drawn),24
5,CCOC(=O)c1c(N)ssc1=S,-24.3
6,CC1CCCCC1NC(=O)/C(C#N)=C/C=C/c1ccccc1[N+](=O)[O-] (stereo not drawn),5.19
7,COC(=O)c1sc(=S)n(-c2ccccc2OC)c1N,-11.8
8,CC1CCN(C2=NC(=O)/C(=C/c3cn(-c4ccccc4)nc3-c3cccc(S(=O)(=O)N(C)C)c3)S2)CC1,-1.64
9,O=C(CSc1nc(Nc2ccccc2)nc(N2CCOCC2)n1)N1CCCC1,-60.4
10,Cn1cc(C2=C(c3ccc(Cl)cc3Cl)C(=O)NC2=O)c2ccccc21,33
11,COc1ccc(C(=O)N/C(=C\c2cc(OC)c(OC)cc2[N+](=O)[O-])C(=O)NCCO)cc1,17.3
12,CSC(=Nc1cccc(C)c1)NC#N,8.71
13,O=C(N/N=C/c1sc(=O)n(-c2ccccc2)c1Cl)c1ccccc1,4.77
14,O=C(Nc1ccc(Br)cc1)c1nn(C23CC4CC(CC(C4)C2)C3)cc1Br,14.3
15,CC(C)CN1CCN(Cc2cccn2-c2ccc(Cl)cn2)CC1CCO (stereo not drawn),-64.6
16,CCCC(=O)Nc1ccccc1NC(=O)c1cc(OC)c(OC)c(OC)c1,13.7
17,COC(=O)CN1C(=S)N(Cc2ccccc2)C(=O)C1CC(=O)Nc1ccc(OC)cc1 (stereo not drawn),-14.3
18,Cc1cccc(C)c1OCCOC(=O)c1n[nH]c2ccccc12,-30
19,COc1ccccc1/C=C/C1(C(=O)NC2CCCC2)CC(=O)N1c1ccc(C)cc1 (stereo not drawn),-6.46
20,COc1cc(C)ccc1OCCCOc1ccccc1Br,-2.07
21,O=C1N=C2SCCN2/C1=C\c1ccccc1Cl,-2.33
22,CC(C)C(C)NC(=O)CN1C(=O)NC(c2ccccc2)(c2ccccc2)C1=O (stereo not drawn),6.71
